Columns and labels:
[1] = target: T1, biotinylated PP1 (AviTag-FL mPP1G 1–323 with C-terminal LE) (UniProt P63087, biotin on the AviTag); test: BLI
[2] = target: T1, biotinylated PP1 (AviTag-FL mPP1G 1–323 …); test: BLI; Sephin1

T1 sequence (P63087 other isoform, or with tags, fused parts or gaps): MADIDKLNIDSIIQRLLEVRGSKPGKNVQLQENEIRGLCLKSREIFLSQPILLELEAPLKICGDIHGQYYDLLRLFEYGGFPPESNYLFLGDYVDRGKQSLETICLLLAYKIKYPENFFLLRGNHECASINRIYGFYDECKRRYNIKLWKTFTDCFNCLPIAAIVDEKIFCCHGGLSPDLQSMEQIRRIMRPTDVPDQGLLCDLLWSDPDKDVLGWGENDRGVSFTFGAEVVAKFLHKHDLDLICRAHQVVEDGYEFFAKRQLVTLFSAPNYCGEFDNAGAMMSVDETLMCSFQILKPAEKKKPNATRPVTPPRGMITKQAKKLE

B1: human PPP1R15A^[…]-MBP (domain or fragment)
chain: EAECPPCIPPPSAFLKAWVYWPGEDTEEEEDEEEDEDSDSGSDEEEGEAEASSSTPATGVFLKSWVYQPGEDTEEEEDEDSDTGSAEDEREAETSASTPPASAFLKAWVYRPGEDTEEEEDEDVDSEDKEDDSEAALGEAESDPHPSHPDQRAHFRGWGYRPGKETEEEEAAEDWGEAEPCPFRVAIYVPGEKPPPPWAPPRLPLRLQRRLKRPETPTHDPDPETPLK[… about 80 residues …]APIPALTQTLPS
- Kd [1]: 0.49 nM
- Kd [2]: 0.63 nM

From publication PMC5429092 (2017)
